From publication PMC12136788
The list shows a part of the results.

B1: 155306504_155306716_2976_CDS_ENSMUSG00000042699_ENSMUST00000042141|mouse|control|control (ssRNA)
RNA: GGGAGUUCUACAGUCCGACGAUCCUGUACUUUGGCCUCCCAAGUCAUUCUCAGUGUAGCCAUAUUGAGUCUCUUCUGCUCACAAAAACGUAUUUCUGCUUCUUCUCCACUCAUCCUAGCAUCAUCCCAGGCUUGGAAUACUGACAACAGAGGAUUGAGCAUCA
B2: chr10:106025898:106025899:+_ENSG00000148834_ENST00000369713|hu_hu|FALSE|FALSE (ssRNA)
RNA: GGGAGUUCUACAGUCCGACGAUCUACACACUCAUUUAACUUCAUUGCUUCCAGCCGUUCAAACCAGGGCCAGAUGAGGUAAUCAAUCAUAGAGAUAGAAUUGCCACCAAAGAAGGUCGUCUUCUUAUUAGUCAGAACCUCCUCCAACAGAGGAUUGAGCAUCA
B3: chr4:108167797:108167798:+_ENSMUSG00000034610_ENSMUST00000043368|mus_hu|motif|central (ssRNA)
RNA: GGGAGUUCUACAGUCCGACGAUCCUCCACAAUUUCCUGACGGACUCUGAGGUCAUCAUCUGUUAUUCCAUGUUCUUUUGCGGAUUCAAUGACUGCAACACUUAAAGCAGCCAAGUGGGCAGGGGAAGGAGGUGGCAGAGAACGCAACAGAGGAUUGAGCAUCA
B4: chr5:33369694:33369695:+_ENSMUSG00000018965_ENSMUST00000019109|mus_hu|FALSE|FALSE (ssRNA)
RNA: GGGAGUUCUACAGUCCGACGAUCGGAAUCCUCGUUUAGUGUGUCCAGCUCAGCUAUGGCAUCAUCGAAGGCUUGUUUGGCUAAGAGGCAGGCUUGCUCAGGUGCAUUCUGGAUCUCAUAGUAGAACACGGAGAAGUUGAGGGCCAACAGAGGAUUGAGCAUCA
B5: chr1:180251914:180251915:+_ENSMUSG00000026500_ENSMUST00000027781|mus_hu|motif|central (ssRNA)
RNA: GGGAGUUCUACAGUCCGACGAUCAGAUCCUAAUGAACCAUACAAUAUUGAAUGCCGGGCGCAGGGAGUAUUUUCAACAUCGGAAAAUCCUAGGAGCUUAAGGGACUUCCAAUAUGAUAAAUGUAACGACGUACAAGAUGCCUUCAACAGAGGAUUGAGCAUCA
B6: chr10:24632488:24632489:+_ENSMUSG00000019984_ENSMUST00000092646|mus_hu|FALSE|FALSE (ssRNA)
RNA: GGGAGUUCUACAGUCCGACGAUCUGCUGGAGACCCACUGUUCAUGGCUUGUGGAGGCACUGCAGCUGGCUCCAUCUUGCUAAUGUGUGUGAUGAAUCGAAGACGAAGUUUUAAAGCUGGUUUUAAGUUACAGAUAAUCUUCUCCAACAGAGGAUUGAGCAUCA
B7: 37423422_37423793_878_CDS_ENSMUSG00000026113_ENSMUST00000027287|mouse|control|control (ssRNA)
RNA: GGGAGUUCUACAGUCCGACGAUCAGGGGGCUGCUGGUCGGACUUCUCCUCCAUCUGCCAGCCGAUCACAGUUAUGUUGCCGACACGGUCACUCUCUGCAGACCUCAGUGUCAGAUGCAAUCUGUGAUGCCUGUCCUGGAGCAGCAACAGAGGAUUGAGCAUCA
B8: chr14:78183846:78183847:+_ENSG00000119705_ENST00000557342|hu_hu|hu_hu_hu_mus_False|78_108 (ssRNA)
RNA: GGGAGUUCUACAGUCCGACGAUCUCUGUCUCAAAAAUCUUCAUCAGAUGUUUGAGCUGUUUGCGGAGCCUUUGCUCUUUGAGCUUGAACGUGGAUCUAUGGGAGGGAAAGCACUGUCAGAAAAGGUAAUUUUUUUUUUAAAGACAACAGAGGAUUGAGCAUCA
B9: chr19:10652113:10652114:+_ENSMUSG00000034445_ENSMUST00000168445|mus_mus|FALSE|FALSE (ssRNA)
RNA: GGGAGUUCUACAGUCCGACGAUCAAGGAAGCGGCGGAACCACCACUGGAACCCAUAACCCGGCUCUCCCAGCCCGGGUUCUAUCCCACCCUUAGCCACACAGUGGGACACCUUGGGGGCAGGUCUCUGGGACCCGCCGGUCAGCAACAGAGGAUUGAGCAUCA
B10: 118439522_118441709_1028_CDS_ENSG00000196505_ENST00000369442|human|control|control (ssRNA)
RNA: GGGAGUUCUACAGUCCGACGAUCGUCAAUAUCUCCUUCCAUUCGAGCAAAAGCAUGAGAGCCAAUGAAAGAGAGAUCAACUCCCAAGCCUUCAUCCUCCUCUUCUUGGUUAUCUUCUGGAGCACCAGGUUUCUCACUUAUUCUCAACAGAGGAUUGAGCAUCA
B11: chr2:47387770:47387771:-_ENSG00000143933_ENST00000272298|hu_mus|hu_hu_hu_mus_True|18_18 (ssRNA)
RNA: GGGAGUUCUACAGUCCGACGAUCAAGGUUUAAGGACAAUGACAGUAAGAUAAGGGAAGAAAACAUGGAGGAAUGAAGUCCUAAUUACUAUACAUGCAUAUUUUUUGACAGUAGGGGAGAAACCUUUUUUACAGAUAAGUUACACAACAGAGGAUUGAGCAUCA
B12: chr17:65740002:65740003:+_ENSG00000130935_ENST00000581375|hu_hu|hu_hu_hu_mus_False|1_58 (ssRNA)
RNA: GGGAGUUCUACAGUCCGACGAUCAACAAAUCUUUCUUCCCUGGACGAACAGGAAGAUUCAUAUUAAAAAAAAUAUAUGUCUAUGAAGUUAGGUGUGGUGGCCACACCUUUACUCCCAGCACUUUGGGAGGUGGAUCCUCUAUUCAACAGAGGAUUGAGCAUCA
B13: 65282079_65282199_135_5pUTR_ENSG00000090487_ENST00000204566|human|control|control (ssRNA)
RNA: GGGAGUUCUACAGUCCGACGAUCGGCGGCUGGGCCCGGGUCGGGGCGGGCGGCGGAGCACUCGGGACCCACGGGCACAGCAGGCUGCGCGGUGCGUGCGGGAGGCCGGCCUCUGAGGGGGCGGGGCGCGUGGCCGAGCGAGCUCAACAGAGGAUUGAGCAUCA
B14: chr3:95999270:95999271:+_ENSMUSG00000038486_ENSMUST00000035371|mus_mus|FALSE|FALSE (ssRNA)
RNA: GGGAGUUCUACAGUCCGACGAUCAUCCCCUGGGGAUGCAGUAAGGGAGAAGGCUACGUCCAGCCACGGAAUGGUGAAAGAAGGGUCGCACAUUCACACACUGGGCACUGGAGGAGAAGGCAGUCCUUUGAGCACAGACACUAGCAACAGAGGAUUGAGCAUCA
B15: 33558616_33576794_3194_CDS_ENSG00000163539_ENST00000461133|human|control|control (ssRNA)
RNA: GGGAGUUCUACAGUCCGACGAUCCAGCUCCUUCAACAACUCUGCAACUAGGUCAGAAUGAUCUAGGGAAAGAUCGUCAGGAAACUGGUCAGCAUCAUCAUCAAACAUGGCUUCCUUGAGGGCAGACUUGUUGAAGGGACUGAUCAACAGAGGAUUGAGCAUCA
B16: chr2:101883234:101883235:+_ENSG00000158435_ENST00000289382|hu_hu|FALSE|FALSE (ssRNA)
RNA: GGGAGUUCUACAGUCCGACGAUCGAAAUACUCAGUGAUCUGGCUUGACUGCAUUAAUUUCAGCAACAUUUCUAUAGCGACUAAAGGGUUGUUUUCCACAAGGUCAGGAAGUUUGGCUGGGGUGAGGCCAAUAUGGUAGACAAGCAACAGAGGAUUGAGCAUCA
B17: chr16:46708560:46708561:-_ENSG00000069329_ENST00000568784|perfect_dup|FALSE|FALSE (ssRNA)
RNA: GGGAGUUCUACAGUCCGACGAUCAAAAAGUUUAAUCUCAGCUGGAAUUCCGGGUCCAUCUUCACGAUGAGCAAAUAAAGCUAAUCUGUCAAUUAAAGCAAUGAUUAUGUUUUUCACAUUUACAUUUUGGUGUAAUUCAGCACACAACAGAGGAUUGAGCAUCA
B18: chrX:71549400:71549401:+_ENSMUSG00000019087_ENSMUST00000019231|mus_hu|mus_mus_mus_hu_False|78_98 (ssRNA)
RNA: GGGAGUUCUACAGUCCGACGAUCGCAGUAGGAAGAGCAAACCUUUCCAGUCCAGUGGUCACAAAACUGGGAAAGCAACAACACGGACACCGUCCCACCCUCAACCCCCCCACUGGCACAGGGUCACACAAUCUGGGUCAAAGACAACAGAGGAUUGAGCAUCA
B19: chr8:26875701:26875702:-_ENSMUSG00000037316_ENSMUST00000038498|mus_mus|motif|central (ssRNA)
RNA: GGGAGUUCUACAGUCCGACGAUCAGACUACUGAGACAGACAACCAAAUGCAAAACUGGAUCUGGAACAGUUGAGAGGAUGCGGCGGAAAAGAUAAAUGAAGUGUCUACUUUUAGCUUGCUACUUCAGCUAAUAUUAAUAGCACCAACAGAGGAUUGAGCAUCA
B20: chrX:147244336:147244337:-_ENSMUSG00000025268_ENSMUST00000112699|mus_mus|FALSE|FALSE (ssRNA)
RNA: GGGAGUUCUACAGUCCGACGAUCACUGAGAAGAAUAUACAAGUGGUCAUUCUUGUCAAUUUCUUUCAAUUGGAUUCCAAAUACCUUCUCCAAGGAAUAGCCUGCUCGUUCAAUGAUUUCAGGGUAUACAUCAGUAUAUUCUUUCAACAGAGGAUUGAGCAUCA
B21: chr4:6882955:6882956:+_ENSG00000170871_ENST00000425103|hu_mus|motif|central (ssRNA)
RNA: GGGAGUUCUACAGUCCGACGAUCUGGCGACACAGCCGCCAGAGGGAGGCCUGCAGCUGCGAUGCAGAAGCGGGACGCACGGGGACAAGCACAUGCACACCCAUUCCUCAUGGACAGCACAGUCUAGUCUACUUCAGAGAGCAACAACAGAGGAUUGAGCAUCA
B22: chr11:100882373:100882374:+_ENSMUSG00000019302_ENSMUST00000044721|mus_mus|mus_mus_mus_hu_True|1_28 (ssRNA)
RNA: GGGAGUUCUACAGUCCGACGAUCUUCCUGGUUUGUGUUGAUUUCCUUCAGUUCAUUUUCAAUCUUCUCAAAAUUGGCCUCUAAGUCAAUCAUGUCCCGGGGGAAGGGCACCUCUGGGUUUUCACCGGUGUCCAUAAUUGGGAUCAACAGAGGAUUGAGCAUCA

The binders below were run against T1, UNK ZnF1-3 (human, UniProt Q9C0B0 31-174) (assay: nsRBNS (natural sequence RNA bind-n-seq); RBNS binding buffer (assumed for nsRBNS): 25 mM Tris pH 7.5, 150 mM KCl, 3 mM MgCl2, 0.01% Triton X-100, 500 ug/ml BSA, 20 U/ml SUPERase-In, 4 C; UNK is unkempt and MSI1 is Musashi-1; names of the RNAs are library labels; protein concentration not given here; high values mean tight binding).
T1 sequence: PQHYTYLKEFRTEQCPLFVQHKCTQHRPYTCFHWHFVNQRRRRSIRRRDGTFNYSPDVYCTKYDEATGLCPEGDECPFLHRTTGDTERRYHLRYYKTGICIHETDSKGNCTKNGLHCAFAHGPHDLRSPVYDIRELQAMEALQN

| Binder | binding signal [enrichment R] |
| --- | --- |
| B1 | 0.801 |
| B2 | 1.24 |
| B3 | 1.17 |
| B4 | 1.25 |
| B5 | 1.55 |
| B6 | 0.925 |
| B7 | 0.238 |
| B8 | 2.92 |
| B9 | 0.72 |
| B10 | 1.12 |
| B11 | 1.81 |
| B12 | 1.17 |
| B13 | 0.738 |
| B14 | 1.02 |
| B15 | 0.445 |
| B16 | 1.53 |
| B17 | 1.15 |
| B18 | 1.59 |
| B19 | 2.55 |
| B20 | 0.463 |
| B21 | 1.3 |
| B22 | 0.522 |
